From the supplement of paper PMC5919970
Structures can show the parent of a compound that is named as a salt. Whole data set: some 2,000 compounds, median “fractional viability relative to vehicle” near 0.92, cut for the lowest 2% near 0.11. The list shows a part of the results.

Test system: TYKNU
Assay: fractional viability relative to vehicle; TYKNU is a high-grade serous ovarian cancer line; higher = less growth inhibition
Conditions: 72 h, genotype: OPA1 knockout (sgOPA1 #2)
Method in brief: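 TYKNU control cells or lentiCRISPRv2 knockout derivatives were plated at 500 cells per well in duplicate into drug-stamped 384-well plates holding a ~2100-compound library at 2 or 10 μM. Culture was in RPMI 1640 with 10% FBS at 37 °C in 5% CO2, with 72 h of drug treatment. Viability was measured by Cell Titer Glo luminescence, and the averaged duplicate treatment wells were normalised to duplicate control wells at the same plate position.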

SMILES | fractional viability (2uM) | fractional viability (10uM)
CC#C[C@]1(O)CC[C@H]2[C@@H]3CCC4=CC(=O)CCC4=C3[C@@H](c3ccc(N(C)C)cc3)C[C@@]21C [Mifepristone] | 1.04 | 0.816
CC[C@@H]1C(=O)N(C)c2cnc(Nc3ccc(C(=O)N[C@H]4CC[C@H](N5CCN(CC6CC6)CC5)CC4)cc3OC)nc2N1C(C)C [Volasertib (BI 6727)] | 1.07 | 1.06
COC(=O)N[C@@H](C)CNc1nccc(-c2cn(C(C)C)nc2-c2cc(Cl)cc(NS(C)(=O)=O)c2F)n1 | 0.547 | 0.46
CCc1cccc(CC)c1NC(=O)N1Cc2[nH]nc(NC(=O)c3ccc(N4CCN(C)CC4)cc3)c2C1 | 1.02 | 0.885
COC(=O)C1=CO[C@@H](O)[C@@H]2C(CO)=CC[C@H]12 [Genipin] | 1.03 | 0.69
Cc1nc(C(=O)NCC(=O)O)c(O)c2ccc(Oc3ccccc3)cc12 | 1.11 | 1.04
CCCCCCNC(=O)n1cc(F)c(=O)[nH]c1=O [Carmofur] | 1.38 | 1.12
CC(O)c1cc(C(=O)N[C@@H](C)Cn2ccc(-c3ccc(C#N)c(Cl)c3)n2)n[nH]1 (stereo partly specified) | 0.945 | 1.06
CC(C)[C@H](N)C(=O)OCCOCn1cnc2c(=O)nc(N)[nH]c21 [Valaciclovir HCl] | 1.18 | 0.943
CN1CCN2c3ncccc3Cc3ccccc3C2C1 (stereo unspecified) [Mirtazapine] | 0.953 | 1.04
CC[C@H](NC(=O)[C@H](C)NC)C(=O)N1C[C@@H](O)C[C@H]1Cc1c(-c2[nH]c3cc(F)ccc3c2C[C@@H]2C[C@H](O)CN2C(=O)[C@H](CC)NC(=O)[C@H](C)NC)[nH]c2cc(F)ccc12 [Birinapant] | 0.726 | 0.502
CC(C)N(CC[C@H](c1ccccc1)c1cc(CO)ccc1O)C(C)C | 0.904 | 1.01
CC(C)(Oc1ccc(Cl)cc1)C(=O)OCCOC(=O)c1cccnc1 [Etofibrate] | 0.96 | 0.914
Cc1cc(C)nc(NS(=O)(=O)c2ccc(N)cc2)n1 [Sulfamethazine] | 0.84 | 1.07
CC1(C)O[C@@H]2C[C@H]3[C@@H]4C[C@H](F)C5=CC(=O)C=C[C@]5(C)[C@@]4(F)[C@@H](O)C[C@]3(C)[C@]2(C(=O)CO)O1 [Fluocinolone Acetonide] | 1.03 | 1.1
CCn1c(=O)c2c(nc(/C=C/c3ccc(OC)c(OC)c3)n2C)n(CC)c1=O [Istradefylline] | 1.39 | 1.27
CC1=NN(c2ccc(C)c(C)c2)C(=O)/C1=N\Nc1cccc(-c2cccc(C(=O)O)c2)c1O [Eltrombopag] | 1.13 | 0.802
CC1=NN(c2ccc(C)c(C)c2)C(=O)/C1=N\Nc1cccc(-c2cccc(C(=O)O)c2)c1O [Eltrombopag Olamine] | 1.26 | 0.875
C[C@@H]1C/C=C/C=C/C=C/C=C/[C@H](O[C@@H]2O[C@H](C)[C@@H](O)[C@H](N)[C@@H]2O)C[C@@H]2O[C@](O)(C[C@@H](O)C[C@H]3O[C@@H]3/C=C/C(=O)O1)C[C@H](O)[C@H]2C(=O)O [Natamycin] | 1.28 | 0.954
CC(C(O)c1ccc(O)cc1)N1CCC(Cc2ccccc2)CC1 (stereo unspecified) [Ifenprodil Tartrate] | 1.05 | 0.925
C[C@H]1[C@H](C)CC[C@]2(C(=O)O)CC[C@]3(C)C(=CC[C@@H]4[C@@]5(C)CC[C@H](O)C(C)(C)[C@@H]5CC[C@]43C)[C@H]12 [Ursolic Acid] | 1.02 | 0.908
NC(=O)Nc1cc(-c2cccc(F)c2)sc1C(=O)N[C@H]1CCCNC1 | 0.659 | 0.255
O=C(c1ccc(F)cc1)C1CCN(CCn2c(=O)[nH]c3ccccc3c2=O)CC1 [Ketanserin] | 0.912 | 1.09

SMILES | fractional viability (2uM) | fractional viability (10uM)
C[C@H]1CO[C@@H]2Cn3cc(C(=O)NCc4ccc(F)cc4F)c(=O)c(O)c3C(=O)N12 | 0.871 | 0.706
Nc1nccc(Oc2ccc(NC(=O)c3c[nH]cc(-c4ccc(F)cc4)c3=O)cc2F)c1Cl | 1.07 | 1.02
CCS(=O)(=O)N1CC(CC#N)(n2cc(-c3ncnc4[nH]ccc34)cn2)C1 | 1.06 | 1.06
O=C1NCC2(CCN(CCc3ccccc3)CC2)O1 [Fenspiride HCl] | 1.08 | 0.919
Clc1ccc2c(c1)CCc1cccnc1C2=C1CCNCC1 [Desloratadine] | 1.06 | 0.876
O=C(O)CCc1ccc(NCc2cccc(Oc3ccccc3)c2)cc1 | 0.801 | 0.884
CO[C@H]1/C=C/O[C@@]2(C)Oc3c(C)c(O)c4c(O)c(c5c(nc6cc(C)ccn65)c4c3C2=O)NC(=O)/C(C)=C\C=C\[C@H](C)[C@H](O)[C@@H](C)[C@@H](O)[C@@H](C)[C@H](OC(C)=O)[C@@H]1C [Rifaximin] | 1.17 | 0.924
C[C@]12C=CC(=O)N[C@@H]1CC[C@@H]1[C@@H]2CC[C@]2(C)[C@@H](C(=O)Nc3cc(C(F)(F)F)ccc3C(F)(F)F)CC[C@@H]12 [Dutasteride] | 0.985 | 0.91
Clc1cccc(Cl)c1NC1=NCCN1 [Clonidine HCl] | 0.839 | 0.785
CN(C)S(=O)(=O)c1ccc2c(c1)/C(=C/c1cc3c([nH]1)CCCC3)C(=O)N2 | 0.929 | 0.283
Cn1ncnc1[C@H]1c2n[nH]c(=O)c3cc(F)cc(c23)N[C@@H]1c1ccc(F)cc1 | 0.905 | 0.986
Cc1cnc(Nc2ccc(OCCN3CCCC3)cc2)nc1Nc1cccc(S(=O)(=O)NC(C)(C)C)c1 | 0.482 | 0.129
COc1ccc(Cl)c(Nc2nc3ccccc3nc2NS(=O)(=O)c2cccc(NC(=O)C(C)(C)N)c2)c1 [Pilaralisib (XL147)] | 0.857 | 0.766
CCCNC(=O)NS(=O)(=O)c1ccc(Cl)cc1 [Chlorpropamide] | 1.01 | 0.884
O=C(Cc1ccccc1)Nc1nnc(CCSCCc2nnc(NC(=O)Cc3ccccc3)s2)s1 | 1.05 | 0.971
COc1ccc(-c2nc(N3CCOCC3)c3sc(CN(C)c4ncc(C(=O)NO)cn4)cc3n2)cn1 | 0.118 | 0.115
COc1cc(-c2ncn(/C=C\C(=O)OC(C)C)n2)cc(C(F)(F)F)c1 | 0.22 | 0.259
c1ccc2c(CCNc3ccc(Nc4ccncc4)cc3)c[nH]c2c1 | 0.485 | 0.15
NCCCCCC(=O)O [_6-__-_Aminocaproic acid] | 1.02 | 1.23
CC(C)CCNC(=O)[C@H](CC(C)C)NC(=O)[C@H]1O[C@@H]1C(=O)O [Loxistatin Acid (E-64C)] | 0.866 | 0.945
COc1ccc2c(Oc3ccc(NC(=O)c4c(C)n(CC(C)(C)O)n(-c5ccccc5)c4=O)nc3)ccnc2c1 | 1.13 | 0.834
COc1c(C)cnc(Cn2cnc3c(Cl)nc(N)nc32)c1C | 0.697 | 0.522
Cc1nc2c([nH]1)-c1ccccc1N(C(=O)c1ccc(NC(=O)c3ccccc3-c3ccccc3)cc1)CC2 [Conivaptan HCl] | 1.06 | 1.03

SMILES | fractional viability (2uM) | fractional viability (10uM)
CCCCCCCCCCCCCCCC(=O)OC[C@H](O)[C@H]1OC(=O)C(O)=C1O [L-Ascorbyl 6-palmitate] | 0.923 | 0.885
Cc1csc(-c2nnc(Nc3ccc(Oc4ncccc4-c4ccnc(N)n4)cc3)c3ccccc23)c1 | 0.777 | 0.953
Nc1nc2c(ncn2COC(CO)CO)c(=O)[nH]1 [Ganciclovir] | 0.978 | 0.808
CCOC(=O)[C@H]1O[C@@H]1C(=O)N[C@@H](CC(C)C)C(=O)NCCC(C)C [Aloxistatin] | 0.883 | 0.823
C=CC(=O)Nc1cccc(Sc2nc(Nc3ccc(N4CCN(C)CC4)cc3)ncc2Cl)c1 | 1.31 | 0.1
CCCCNc1ncc(C(=O)NCc2ccc(-n3ccnc3)cc2)c(NC2CCC(O)CC2)n1 (stereo unspecified) | 1.36 | 0.337
COCC(=O)NC/C=C/c1ccc2ncnc(Nc3ccc(Oc4ccc(C)nc4)c(C)c3)c2c1 | 1.29 | 1.17
Cn1c(=O)c2c(ncn2CC2OCCO2)n(C)c1=O [Doxofylline] | 0.964 | 0.91
Oc1cc2c(cc1O)C(c1ccccc1)CNCC2 (stereo unspecified) | 0.958 | 0.87
Cc1ccc([C@@H]2O[C@H](CO)[C@@H](O)[C@H](O)[C@H]2O)cc1Cc1ccc(-c2ccc(F)cc2)s1 [Canagliflozin] | 0.931 | 0.94
CC(C)(C)c1cc(C(C)(C)C)c(NC(=O)c2c[nH]c3ccccc3c2=O)cc1O [Ivacaftor (VX-770)] | 1.2 | 0.682
CC(C)NC[C@@H](C(=O)N1CCN(c2ncnc3c2[C@H](C)C[C@H]3O)CC1)c1ccc(Cl)cc1 | 0.858 | 0.82
COc1cccc(C=NCCN=Cc2cccc(OC)c2[O-])c1[O-].[Cl-].[Mn+3] | 0.832 | 0.818
CC1CCN(CC[C@H]2CCCN2S(=O)(=O)c2cccc(O)c2)CC1 | 0.927 | 0.923
Nc1ncnc2c1ncn2[C@@H]1O[C@H](CO)[C@@H](O)[C@@H]1O [Vidarabine] | 1.34 | 1.07
CCOc1nc2cccc(C(=O)O)c2n1Cc1ccc(-c2ccccc2-c2nnn[nH]2)cc1 [Candesartan] | 0.939 | 0.793
C=CC(=O)Nc1cccc(Oc2nc(Nc3ccc(N4CCN(C)CC4)cc3)ncc2Cl)c1 | 0.825 | 0.5
C[C@@](Cc1ccc(O)c(O)c1)(NN)C(=O)O [Carbidopa] | 0.983 | 0.921
O=C(Nc1cccnc1)c1cc(-c2ccnc(F)c2)ccc1OCc1ccccc1 | 1.47 | 0.684
COc1ccc(Cl)cc1NC(=O)Nc1cc(C)nc2ccccc12 | 1.44 | 0.492
CN(C)CCC(c1ccc(Br)cc1)c1ccccn1 (stereo unspecified) [Brompheniramine hydrogen maleate] | 0.959 | 1.07
O=C1CC[C@@H](C(=O)N2CSC[C@H]2C(=O)O)N1 [Pidotimod] | 0.974 | 1.02
